# Measurements reported in PubChem BioAssay (Tox21).
# Several values for one entry are separate records, joined by “and”; a condition that tells them apart may be missing. Equal entries are not always repeated. Inconclusive results, whose numbers are uncertain, are shown with a selection of clear calls. For some assays here: Potencies beside an inconclusive call are fits to weak or partial responses and may not hold up. Activity calls are given as the source filed them. Unless noted, calls come from the whole dose curve; as a rule, active = well fitted curve in the direction sought with a large enough effect in the repeat runs; inconclusive = weak or mixed curves; inactive = no such curve, though single readings can be large; an effect the other way counts as inactive or inconclusive.
# How the values were obtained:
# [1] = qHTS assay to identify small molecule antagonists of the estrogen related receptor (ERR) signaling pathway from Tox21 library - cell viability counter screen (AID 1224834); note: nearly all actives have a fitted effect of over 30% in size; note: potency is the fitted concentration of half-maximal effect
# Summary of the method: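 CellTiter-Fluor fluorescence, read after 30 min at 37 C, measures viability of ERR cells. Cells plated at 2,000/well and incubated 6 h before pin-tool compound addition, then exposed 17.5 hours at 37 C.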
# [2] = biological target: Luciferin 4-monooxygenase (Photinus pyralis) (UniProt P08659); assay: qHTS assay to identify small molecule inhibitors of firefly luciferase (AID 1224835); note: potency is the fitted concentration of half-maximal effect; nearly all actives have a fitted effect of over 25% in size
# Sequence of UniProt P08659 (P08659 whole entry, looked up): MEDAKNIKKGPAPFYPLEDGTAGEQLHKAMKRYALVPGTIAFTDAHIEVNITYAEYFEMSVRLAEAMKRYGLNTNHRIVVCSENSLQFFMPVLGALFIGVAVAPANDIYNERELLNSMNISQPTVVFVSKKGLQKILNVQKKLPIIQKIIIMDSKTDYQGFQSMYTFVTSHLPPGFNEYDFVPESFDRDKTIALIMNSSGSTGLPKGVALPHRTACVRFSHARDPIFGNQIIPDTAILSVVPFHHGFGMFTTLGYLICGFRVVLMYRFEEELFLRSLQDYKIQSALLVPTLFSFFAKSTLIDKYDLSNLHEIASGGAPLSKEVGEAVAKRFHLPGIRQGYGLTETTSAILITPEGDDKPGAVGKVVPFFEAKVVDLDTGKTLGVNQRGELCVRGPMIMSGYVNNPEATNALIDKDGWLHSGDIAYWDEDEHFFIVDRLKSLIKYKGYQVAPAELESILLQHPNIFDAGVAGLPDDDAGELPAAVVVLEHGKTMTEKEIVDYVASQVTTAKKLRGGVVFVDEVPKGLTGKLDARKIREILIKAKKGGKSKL
# Summary of the method: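 Quantitative HTS format; KM concentrations of both substrates. Purified P. pyralis FLuc activity quantified from luminescence images.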
# [3] = qHTS assay to identify small molecule antagonists of the estrogen related receptor signaling pathway with the pleiotropic PPARgamma coactivator (PGC) from Tox21 10K library - cell viability counter screen (AID 1224840; active = well fitted cell-killing curve with a large enough effect in the repeat runs, not every such curve was filed as active; inconclusive = weak or mixed curves, or effect the other way; inactive = no such curve, though single readings can be large or run the other way; note: potency is the fitted concentration of half-maximal effect; nearly all actives have a fitted effect of over 40% in size)
# Summary of the method: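 Counter-screen for cytotoxicity: after 17.5 h compound exposure at 37 C, CellTiter-Fluor reagent added to PGC/ERR cells for 30 min and fluorescence read. Cells were seeded at 2,000 per well 6 h before dosing.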
# [4] = qHTS assay to identify small molecule antagonists of the estrogen related receptor signaling pathway with the pleiotropic PPARgamma coactivator (PGC) from Tox21 10K library (AID 1224841; call rule not given here; note: potency is the fitted concentration of half-maximal effect; actives are mostly falling curves and most rising ones were filed inactive; nearly all actives have a fitted effect of over 50% in size)
# Summary of the method: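 Luminescence (One-Glo, 30 min at room temperature) after 18 h compound treatment at 37 C of PGC/ERR reporter cells plated at 2,000 cells/well and settled 6 h beforehand.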
# [5] = qHTS assay to identify small molecule agonists of the hypoxia (HIF-1) signaling pathway (AID 1224846; active = well fitted activation curve with a large enough effect in the signal ratio in the repeat runs, not every such curve was filed as active; inconclusive = weak or mixed curves; the % refers to the signal ratio; note: potency is the fitted concentration of half-maximal effect); conditions: HRE-bla ME-180 cells, beta-lactamase ratio, 17 h; activation: at 76.8 µM (top of the series) unless noted
# Summary of the method: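 Compounds added to ME-180 cells carrying hypoxia-response-element beta-lactamase reporter (0.5% dialyzed FBS, 5 h preplating), 17 h at 37C; agonist activity detected by CCF4-AM B/G FRET read-out.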
# [6] = qHTS RealTime-Glo MT Cell Viability Assay in HEK293 cells - 32 hour (AID 1224868); note: potency is the fitted concentration of half-maximal effect; nearly all actives have a fitted effect of over 50% in size
# Summary of the method: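 Viability tracked continuously by luminescence as live cells reduce a prosubstrate for NanoLuc; HEK293 cells preincubated 5 h, compound-treated at 37 C, and read at 0, 8, 16, 24, 32 and 40 h.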
# [7] = qHTS assay to identify small molecule agonists of the constitutive androstane receptor (CAR) signaling pathway - cell viability counter screen (AID 1224836); note: potency is the fitted concentration of half-maximal effect; nearly all actives have a fitted effect of over 45% in size
# Summary of the method: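 HepG2-CYP2B6-hCAR, 2500 cells/well, 4 h pre-incubation; cpd 15 conc + PK11195 0.75 uM final; 23 h, 37 C/5% CO2; CellTiter-Fluor, fluorescence.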
# [8] = qHTS assay to identify small molecule agonists of the hypoxia (HIF-1) signaling pathway - cell viability counter screen (AID 1224844; calls by dose curve; note: potency is the fitted concentration of half-maximal effect; nearly all actives have a fitted effect of over 50% in size)
# Summary of the method: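 Cytotoxicity measured by CellTiter-Glo ATP luminescence in the wells also read for beta-lactamase signal. Cells were HRE-bla ME-180 (2,000/well, 0.5% dialyzed FBS), exposed to compounds for 17 h at 37C.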
# [9] = qHTS RealTime-Glo MT Cell Viability Assay in HepG2 cells - 24 hour (AID 1224867); note: potency is the fitted concentration of half-maximal effect; nearly all actives have a fitted effect of over 50% in size
# Summary of the method: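 Viability was tracked continuously by NanoLuc luminescence from prosubstrate reduced by living HepG2 cells, at successive time points over 40 h of compound exposure. Cells with reagent were preincubated 5 h at 37 °C before compound addition.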
# [10] = qHTS assay to identify small molecule antagonists of the constitutive androstane receptor (CAR) signaling pathway - cell viability counter screen (AID 1224837); note: potency is the fitted concentration of half-maximal effect; nearly all actives have a fitted effect of over 45% in size
# Summary of the method: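 Cytotoxicity counter-screen: CellTiter-Fluor fluorescence after 23 h compound exposure (15-point qHTS) in double-stable HepG2-CYP2B6-hCAR cells, with 50 nM CITCO added.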
# [11] = qHTS assay to identify small molecule agonists of H2AX (AID 1224845; active = well fitted activation curve with a large enough effect in the signal ratio in the repeat runs, not every such curve was filed as active; inconclusive = weak or mixed curves; the % refers to the signal ratio; note: potency is the fitted concentration of half-maximal effect; for activation (H2AX phosphorylation): % is set by controls: 0 for no effect and ±100 for the full control effect); conditions: CHO-K1 phospho-H2AX Ser139 HTRF, 3 h; activation (H2AX phosphorylation): at 154 µM (top of the series) unless noted
# Summary of the method: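 Wild-type CHO-K1 cells plated overnight, then exposed 3 hr at 37C to compounds at 15 concentrations (0.76% DMSO). Lysed, then HTRF anti-pH2AX(S139)-cryptate/anti-H2AX-d2 detection after 24 hr at room temperature; emissions 665 and 620 nm.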
# [12] = qHTS assay to identify small molecule agonists of H2AX - cell viability counter screen (AID 1224847; calls by dose curve; note: potency is the fitted concentration of half-maximal effect; nearly all actives have a fitted effect of over 30% in size)
# Summary of the method: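 Cells plated first: CHO-K1, 1000 per well in 10% FBS medium, incubated overnight at 37C. Then 15-point compound titration added (final DMSO 0.76%) for 3 hr. Finally CellTiter-Glo added and luminescence read.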
# [13] = biological target: Thyrotropin receptor (Homo sapiens) (UniProt P16473); assay: qHTS assay to identify small molecule agonists of the thyroid stimulating hormone receptor (TSHR) signaling pathway (AID 1224843; calls by dose curve; note: % is set by controls: 0 for no effect and ±100 for the full control effect; nearly all actives have a fitted effect of over 45% in size); conditions: TSHR-HEK293 cells, cAMP HTRF, agonist mode, 30 min; activation: at 92.4 µM (top of the series) unless noted
# Sequence of UniProt P16473 (P16473 whole entry, looked up): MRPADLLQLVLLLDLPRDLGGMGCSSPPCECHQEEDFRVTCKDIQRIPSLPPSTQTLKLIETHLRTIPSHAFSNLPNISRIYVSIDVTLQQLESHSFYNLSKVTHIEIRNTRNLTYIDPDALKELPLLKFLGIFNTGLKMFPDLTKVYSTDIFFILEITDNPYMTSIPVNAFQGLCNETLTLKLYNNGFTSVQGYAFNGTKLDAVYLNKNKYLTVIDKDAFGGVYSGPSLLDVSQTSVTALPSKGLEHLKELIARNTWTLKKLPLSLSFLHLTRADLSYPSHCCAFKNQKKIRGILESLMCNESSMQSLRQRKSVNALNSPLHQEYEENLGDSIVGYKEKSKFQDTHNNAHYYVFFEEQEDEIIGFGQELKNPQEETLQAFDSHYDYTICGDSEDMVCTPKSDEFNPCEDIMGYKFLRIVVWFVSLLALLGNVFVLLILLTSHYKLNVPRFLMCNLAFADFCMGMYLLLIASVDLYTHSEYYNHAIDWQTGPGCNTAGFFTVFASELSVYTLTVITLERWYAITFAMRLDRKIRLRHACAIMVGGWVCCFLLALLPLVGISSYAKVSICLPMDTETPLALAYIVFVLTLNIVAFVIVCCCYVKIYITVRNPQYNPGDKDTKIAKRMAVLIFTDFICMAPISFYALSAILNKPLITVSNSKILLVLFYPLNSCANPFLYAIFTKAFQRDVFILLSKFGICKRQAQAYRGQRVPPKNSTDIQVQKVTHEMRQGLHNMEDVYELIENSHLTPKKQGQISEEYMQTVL
# Summary of the method: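 Compounds are titrated over 15 concentrations, in triplicate, onto TSHR-HEK293 cells seeded at 800/well. Plates sit 30 min at room temperature before cAMP-d2 and anti-cAMP cryptate are added; signal is read after a further hour.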
# [14] = biological target: Nuclear receptor subfamily 1 group I member 3 (Homo sapiens) (UniProt Q14994); assay: qHTS assay to identify small molecule agonists of the constitutive androstane receptor (CAR) signaling pathway (AID 1224839); note: nearly all actives have a fitted effect of over 15% in size; note: potency is the fitted concentration of half-maximal effect;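 for activation: HepG2 cells stably carrying human CAR and a CYP2B6 luciferase reporter; % is set by controls: 0 for no effect and ±100 for the full control effect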
# Sequence of UniProt Q14994 (Q14994 whole entry, looked up): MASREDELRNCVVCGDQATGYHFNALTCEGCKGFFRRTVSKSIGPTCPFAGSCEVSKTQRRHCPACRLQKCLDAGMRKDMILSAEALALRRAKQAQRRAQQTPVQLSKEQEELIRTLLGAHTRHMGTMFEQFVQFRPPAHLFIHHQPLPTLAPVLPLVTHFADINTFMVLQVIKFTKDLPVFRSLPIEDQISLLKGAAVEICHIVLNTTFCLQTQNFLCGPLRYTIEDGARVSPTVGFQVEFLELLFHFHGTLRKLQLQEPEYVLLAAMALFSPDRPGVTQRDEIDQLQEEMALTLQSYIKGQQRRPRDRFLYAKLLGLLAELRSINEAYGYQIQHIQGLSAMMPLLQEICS
# Summary of the method: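 HepG2-CYP2B6-hCAR cells, 2500/well, 4 h pre-incubation; compounds 15 conc.; PK11195 0.75 uM final; 24 h, 37 C/5% CO2; ONE-Glo luciferase read.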
# [15] = qHTS assay to identify small molecule agonists of the estrogen related receptor (ERR) signaling pathway from Tox21 library (AID 1224849; calls by dose curve; note: % is set by controls: 0 for no effect and ±100 for the full control effect; nearly all actives have a fitted effect of over 15% in size); conditions: ERR reporter cell line, ONE-Glo luciferase, 18 h; at 92.4 µM (top of the series) unless noted
# Summary of the method: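 Luminescent agonist read-out (One-Glo, 30-minute room-temperature incubation) following 18-hour compound treatment at 37 C of the ERR cell line, which had been plated 6 hours before dosing.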
# [16] = qHTS assay to identify small molecule antagonists of the estrogen related receptor (ERR) signaling pathway from Tox21 library (AID 1224848)
# Summary of the method: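 First, 2,000 ERR cells per well were plated and held 6 h at 37 C/5% CO2. Next, compounds in DMSO were pinned in and left 18 h at 37 C. Finally, ONE-Glo was added and luminescence read after 30 min at room temperature.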
# [17] = qHTS assay to identify small molecule agonists of the estrogen related receptor signaling pathway with the pleiotropic PPARgamma coactivator (PGC) (AID 1224823); note: potency is the fitted concentration of half-maximal effect
# Summary of the method: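 Luminescence from One-Glo reagent (30 min, room temperature) was read after 18 h compound treatment at 37 C of PGC/ERR cells plated 6 h beforehand; compounds delivered in DMSO by pin tool.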
# [18] = qHTS assay to identify small molecule agonists of the estrogen related receptor signaling pathway with the pleiotropic PPARgamma coactivator (PGC) from Tox21 10K library (AID 1224842); note: potency is the fitted concentration of half-maximal effect; nearly all actives have a fitted effect of over 15% in size
# Summary of the method: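 PGC/ERR reporter cells (NTP line) were seeded 2,000 per well, rested 6 h at 37 C/5% CO2, then pin-dosed with compounds in DMSO for 18 h at 37 C; luciferase read by One-Glo luminescence after 30 min at room temperature.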
# Tags give direction and shape of the fitted curve or compound fluorescence and quenching.
smiles,measurement,setting,value
CCCCC(CC)COP(=O)(O)OCC(CC)CCCC (configuration not stated),Potency,[1],"inconclusive: 54.6 µM [cytotoxic, partial curve]"
same,Potency,[2],"inconclusive: 63.4 µM [inhibitor, partial curve] and inconclusive: 56.4 µM [inhibitor, partial curve]"
same,Potency,[3],"inconclusive: 48.7 µM [cytotoxic, partial curve]"
same,Potency,[4],active: 27.4 µM and active: 21.7 µM
same,Potency,[5],inconclusive: 55 µM [single point] and inconclusive: 54.9 µM [single point]
same,Potency,[6],"inconclusive: 55 µM [cytotoxic, single point] and inconclusive: 54.9 µM [cytotoxic, single point]"
CCc1ccc(O)c(C(C)(C)C)c1,Potency,[1],"inconclusive: 68.6 µM [cytotoxic, single point]"
CC1(C)OC[C@@H]2O[C@@]3(C(=O)O)OC(C)(C)O[C@H]3[C@@H]2O1,Potency,[1],inactive
COc1cc(C(C)=O)ccc1OCCCN1CCC(c2noc3cc(F)ccc23)CC1,Potency,[1],"inconclusive: 29.8 µM [cytotoxic, single point]"
same,Potency,[2],"inconclusive: 15.5 µM [inhibitor, partial curve]"
same,Potency,[7],"inconclusive: 13.3 µM [cytotoxic, single point]"
same,Potency,[8],"inconclusive: 9.52 µM [cytotoxic, single point]"
same,Potency,[9],"inconclusive: 23.9 µM [falling, partial curve, poor fit]"
same,Potency,[6],active: 10.7 µM
O=C(c1ccccc1)c1ccccc1O,Potency,[1],inactive
same,Potency,[2],"inconclusive: 72.8 µM [inhibitor, partial curve, poor fit]"
C/C=C(\C)C(=O)OCC/C=C\CC,Potency,[1],inactive
Nc1ccccc1Nc1ccccc1,Potency,[1],"inconclusive: 34.5 µM [cytotoxic, partial curve]"
same,Potency,[2],"inconclusive: 71.2 µM [inhibitor, partial curve, poor fit]"
same,Potency,[10],"inconclusive: 38.7 µM [cytotoxic, partial curve]"
same,Potency,[3],"inconclusive: 34.5 µM [cytotoxic, partial curve]"
same,Potency,[11],"inconclusive: 56.8 µM [falling, partial curve]"
same,Potency,[12],"inconclusive: 113 µM [cytotoxic, partial curve, poor fit]"
same,Potency,[6],"inconclusive: 6.18 µM [rising, partial curve]"
CCCOCCC,Potency,[1],"inconclusive: 68.6 µM [rising, partial curve, poor fit]"
OCc1c[nH]c2ccccc12,Potency,[1],"inconclusive: 61.1 µM [cytotoxic, partial curve, poor fit]"
same,Potency,[2],inconclusive: 39.9 µM [inhibitor]
same,Potency,[4],active: 3.44 µM
same,activation,[13],inconclusive: 28.3%
same,Potency,[11],"inconclusive: 56.6 µM [fluorescent, single point]"
same,Potency,[5],"inconclusive: 38.9 µM [falling, partial curve]"
same,Potency,[6],"inconclusive: 1.95 µM [rising, full curve]"
CC(C)CCOC(=O)c1ccccc1,Potency,[1],inactive
same,Potency,[2],active: 71 µM
same,Potency,[14],inactive
same,Potency,[13],inactive
COc1ccc(C(=O)/C(Br)=C\C(=O)O)cc1,Potency,[1],active: 54.5 µM
same,Potency,[2],"inconclusive: 71 µM [inhibitor, partial curve]"
same,Potency,[7],"inconclusive: 61.1 µM [cytotoxic, partial curve]"
same,Potency,[14],"inconclusive: 10.9 µM [activator, partial curve]"
same,Potency,[3],"inconclusive: 61.1 µM [cytotoxic, partial curve]"
same,Potency,[8],"inconclusive: 21.9 µM [cytotoxic, single point]"
same,Potency,[11],active: 31.8 µM
same,Potency,[12],"inconclusive: 35.7 µM [rising, partial curve]"
same,"activity change, positive = activation",[15],inconclusive: -11.2%
same,Potency,[9],"inconclusive: 19.5 µM [falling, full curve]"
Nc1cc(C(F)(F)F)ccc1S,Potency,[1],"inconclusive: 33.5 µM [cytotoxic, single point]"
same,Potency,[2],"inconclusive: 17.4 µM [inhibitor, partial curve]"
same,Potency,[11],"inconclusive: 11 µM [fluorescent, partial curve]"
same,Potency,[5],"inconclusive: 26.8 µM [falling, single point]"
same,Potency,[16],"inconclusive: 33.5 µM [inhibitor, single point]"
O=S(=O)(O)c1ccc(O)cc1,Potency,[1],inactive
OCCN1CCN(CCCN2c3ccccc3Sc3ccc(C(F)(F)F)cc32)CC1,Potency,[17],"inconclusive: 33.5 µM [activator, single point]"
same,Potency,[1],active: 29.8 µM
same,Potency,[7],"inconclusive: 26.6 µM [cytotoxic, partial curve]"
same,Potency,[10],"inconclusive: 29.8 µM [cytotoxic, single point]"
same,Potency,[3],active: 29.8 µM
same,Potency,[18],"inconclusive: 37.6 µM [activator, single point]"
same,Potency,[11],inactive
same,Potency,[12],"inconclusive: 55.2 µM [cytotoxic, single point]"
same,Potency,[16],"inconclusive: 29.8 µM [inhibitor, partial curve]"
same,Potency,[6],active: 23.9 µM
